Test results published in PubChem BioAssay AID720708 (National Center for Advancing Translational Sciences (NCATS), 2013).
About 660 (0.18%) of roughly 360,000 compounds were called active. Inconclusive results, whose numbers are uncertain, are shown with a selection of clear calls. Calls follow the shape of the dose curve; as a rule, active = well fitted inhibition curve with a large enough effect; inconclusive = small, poorly fitted or top-dose-only effect; inactive = no such curve, though single readings can be large or run the other way. Potencies of inconclusive entries are left out as doubtful fits.

These compounds were tested against Rap guanine nucleotide exchange factor 4 (Homo sapiens) (UniProt Q8WZA2) (assay: qHTS for Antagonist of cAMP-regulated guanine nucleotide exchange factor 2 (EPAC2): primary screen). Settings: EPAC2 GEF exchange of Rap1B-BODIPY-GDP, fluorescence; activity, negative = inhibition: at 114 µM (top of the series) unless noted.
Sequence of UniProt Q8WZA2 (Q8WZA2 whole entry, looked up): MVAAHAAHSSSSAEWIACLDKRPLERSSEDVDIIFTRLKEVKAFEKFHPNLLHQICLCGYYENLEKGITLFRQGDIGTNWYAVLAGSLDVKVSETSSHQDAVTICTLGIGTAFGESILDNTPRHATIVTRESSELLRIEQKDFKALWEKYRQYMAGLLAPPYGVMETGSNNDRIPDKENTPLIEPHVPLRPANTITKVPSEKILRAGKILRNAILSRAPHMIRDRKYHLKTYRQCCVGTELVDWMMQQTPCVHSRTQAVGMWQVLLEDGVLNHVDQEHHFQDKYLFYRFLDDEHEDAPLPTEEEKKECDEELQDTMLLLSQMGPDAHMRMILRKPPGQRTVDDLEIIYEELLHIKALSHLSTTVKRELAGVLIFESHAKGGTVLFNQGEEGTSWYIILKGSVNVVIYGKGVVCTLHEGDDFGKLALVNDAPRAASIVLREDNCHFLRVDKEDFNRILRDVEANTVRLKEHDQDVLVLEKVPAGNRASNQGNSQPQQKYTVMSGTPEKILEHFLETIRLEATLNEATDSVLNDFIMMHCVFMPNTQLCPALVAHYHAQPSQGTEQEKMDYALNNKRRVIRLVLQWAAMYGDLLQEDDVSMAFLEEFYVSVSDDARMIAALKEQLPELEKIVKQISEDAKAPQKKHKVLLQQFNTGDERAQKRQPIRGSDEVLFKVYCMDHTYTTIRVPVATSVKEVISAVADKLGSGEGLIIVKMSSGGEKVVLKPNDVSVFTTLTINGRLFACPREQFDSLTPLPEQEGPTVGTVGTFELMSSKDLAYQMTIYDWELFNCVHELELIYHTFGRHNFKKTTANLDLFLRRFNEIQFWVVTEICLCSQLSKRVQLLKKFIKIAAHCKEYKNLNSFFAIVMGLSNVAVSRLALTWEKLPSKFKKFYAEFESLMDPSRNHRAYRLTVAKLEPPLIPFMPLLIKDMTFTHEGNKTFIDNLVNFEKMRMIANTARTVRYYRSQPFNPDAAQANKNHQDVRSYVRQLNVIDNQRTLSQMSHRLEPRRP
% is scaled to controls: 0 for no effect and ±100 for the full control effect; potency is read from the fitted curve at half-maximal effect; tags tell the direction and shape of the fitted curve.
Also: nearly all actives have a fitted effect of over 45% in size.

Row | Structure (SMILES) | Potency | activity, negative = inhibition
1 | COc1ccccc1/C=C1\SC(=S)N(NS(=O)(=O)c2ccc(C)cc2)C1=O | inconclusive [inhibitor, partial curve] | 
2 | Cc1ccc(S(=O)(=O)N(CC2CO2)c2cc(Cl)ccc2Cl)cc1 (configuration not stated) | inconclusive [inhibitor, partial curve] | 
3 | O=C(Cc1c(Cl)cccc1Cl)N/N=C/c1cccnc1 |  | inactive: -5.83%
4 | O=C(/C=C/Nc1cccc(C(F)(F)F)c1)c1ccc(Oc2ncccn2)cc1 | inconclusive [inhibitor, partial curve] | 
5 | O=C(NC(=S)Nc1ccc(NC(=O)c2cccs2)cc1)c1cc2ccccc2o1 | inconclusive [inhibitor, partial curve] | 
6 | O=[N+]([O-])c1cc(/C=N/O)ccc1Oc1ccccc1Cl | inconclusive [inhibitor, partial curve] | 
7 | CN1OC[C@@H]2CN(C(=O)C(C)(C)C)[C@H](c3ccc(-c4cc5ccccc5o4)cc3)C[C@@H]21 |  | inactive: 5.8%
8 | CSc1nnc(-c2ccco2)c(-c2ccco2)n1 |  | inactive: -0.135%
9 | Oc1c(Br)cc(/C=N/Nc2ccc(Cl)nn2)cc1Br |  | inactive: -7.09%
10 | CCOC(=O)c1ccccc1NC(=O)CSc1nc2c(sc(=S)n2CC)c(=O)[nH]1 | inconclusive [inhibitor, partial curve] | 
11 | O=C(N(c1ccccc1)c1ccccc1)N(c1ccccc1)c1ccccc1 | inconclusive [inhibitor, partial curve] | 
12 | COc1cccc(NC(=O)COC(=O)C2CCN(S(=O)(=O)c3cccs3)CC2)c1 |  | inactive: -12.4%
13 | COc1ccc(Cn2c(=O)oc3ccc(C)cc32)cc1 | inconclusive [inhibitor, partial curve] | 
14 | CN(C)c1cccc(C(=O)OCC(=O)Nc2ccccc2Sc2ccccc2)c1 | inconclusive [inhibitor, partial curve] | 
15 | Cc1ccc2nc(CC(O)(c3ccccc3)c3ccccc3)ccc2c1 | inconclusive [inhibitor, single point] | 
16 | O=C(O)c1ccc(NC(=S)NC(=O)c2ccc(-c3ccc(Br)cc3)o2)cc1 | inconclusive [inhibitor, partial curve] | 
17 | Cc1nn(Cc2n[nH]c(=S)n2Cc2ccccc2)c(C)c1Cl |  | inactive: -10.8%
18 | O=C(O)c1ccccc1N(c1ccccc1)c1ccccc1 | inconclusive [inhibitor, partial curve] | 
19 | O=[N+]([O-])c1cccn2cc(-c3ccc(Br)cc3)nc12 |  | inactive: -0.514%
20 | c1ccc(NN(Cc2cnccn2)c2ccccc2)cc1 | inconclusive [inhibitor, partial curve] | 
21 | CCSc1ccc(-c2cc(NC=O)c3ncc(-c4cc(OC)c(OC)c(OC)c4)n3c2)cc1 | inconclusive [inhibitor, single point] | 
22 | COc1cc(C2OC(c3cc(OC)c(OC)c(OC)c3)C(C)C2C)cc(OC)c1OC (configuration not stated) | inconclusive [inhibitor, full curve, poor fit] | 
23 | CC(=O)c1cccc(NC(=O)c2cc(-c3ccc(F)cc3)on2)c1 |  | inactive: -10%

Row | Structure (SMILES) | Potency | activity, negative = inhibition
24 | COc1ccc(OC)c(NC(=S)N2c3ccccc3CC2C)c1 (configuration not stated) | inconclusive [inhibitor, partial curve] | 
25 | CCOc1ccc(CNC(=O)c2ccc(Sc3ccc(C)cc3)c(NC(C)=O)c2)cc1 | inconclusive [inhibitor, partial curve, poor fit] | 
26 | CC(C)(C)c1ccc(S(=O)(=O)/N=C2\C=C(NS(=O)(=O)c3ccccc3)C(=O)c3ccccc32)cc1 | inconclusive [inhibitor, full curve] | 
27 | CCOC(=O)CC(=O)Nc1ncnc2c1C(c1ccccc1)c1c(ccc3ccccc13)O2 (configuration not stated) | inconclusive [inhibitor, full curve] | 
28 | CC(=O)N1CCCN(C(=O)c2ccc3nc(Cc4ccccc4F)oc3c2)CC1 |  | inactive: -1.07%
29 | Cc1ccc(C2OC(=O)C=C2c2ccccc2)cc1 (configuration not stated) | inconclusive [inhibitor, partial curve] | 
30 | c1cncc(N=c2scc(-c3cccc4ccccc34)n2CCCn2ccnc2)c1 | inconclusive [inhibitor, partial curve] | 
31 | CC1Sc2ccc(C(=O)OCc3ccccc3Cl)cc2NC1=O (configuration not stated) |  | inactive: 2.84%
32 | CCCCC(CC)C(=O)Oc1ccc(O)c(C(C)(C)C)c1 (configuration not stated) | inconclusive [inhibitor, full curve] | 
33 | COC(=O)c1ccc(COc2cccn3c(N(C)C(=O)CCC4CCCC4)c(C)nc23)cc1 | inconclusive [inhibitor, partial curve] | 
34 | CCOc1ccc(NC2=CC(=O)C(=O)c3ccccc32)cc1 |  | inactive: 1.33%
35 | Nc1nnnn1/N=C\c1ccc(Cl)c([N+](=O)[O-])c1 |  | inactive: -3.97%
36 | CC(=O)Nc1ccc(C=NNc2ccc(S(=O)(=O)Nc3ccccc3C(=O)O)cc2[N+](=O)[O-])cc1 | active: 50.1 µM | 
37 | Cc1cccc(NC(=O)CN(C)S(=O)(=O)c2ccc3c(c2)n(C)c(=O)c(=O)n3C)c1C |  | inactive: -3.07%
38 | Cc1cc(C)c(CSc2nnnn2-c2ccc(C(=O)O)cc2)c(C)c1 | inconclusive [inhibitor, partial curve] | 
39 | CCOc1ccccc1NC(=O)CSc1nc2ccccc2c(=O)n1CC1CCCO1 (configuration not stated) | inconclusive [inhibitor, partial curve] | 
40 | O=C(Nc1ccc(C(=O)O)cc1)/C(=C\c1ccc2c(c1)OCO2)NC(=O)c1ccc(Br)o1 | inconclusive [inhibitor, full curve, poor fit] | 
41 | O=C(CC(NC(=O)C(F)(F)F)c1ccccc1)Nc1nnc(CCc2ccccc2)s1 (configuration not stated) | inconclusive [inhibitor, full curve] | 
42 | COc1ccccc1N(CC(=O)NC1CCCC1)C(=O)c1oc(C(C)(C)C)cc1C | inconclusive [inhibitor, partial curve] | 
43 | O=C1c2nc3cc(-c4ccccc4)[nH]n3c(=O)c2CN1Cc1ccccc1 |  | inactive: 1.7%
44 | O=C(O)c1ccc(N/N=C/c2ccc3c(c2)OCO3)cc1 | inconclusive [inhibitor, partial curve] | 
45 | CCN(CC(=O)NCc1ccc(F)cc1)CC(=O)Nc1ccc(Br)cc1F | inconclusive [inhibitor, full curve, poor fit] | 
46 | CCOC(=O)COc1cc(N)c(Cl)cc1Cl | inconclusive [inhibitor, partial curve, poor fit] | 

Row | Structure (SMILES) | Potency | activity, negative = inhibition
47 | COc1ccc2nc(N3CCCCC3)c(/C=C3\SC(=S)NC3=O)cc2c1 | inconclusive [inhibitor, partial curve] | 
48 | O=C(CNC(=O)c1ccc(Cl)cc1)OCc1nc2ccccc2s1 | inconclusive [inhibitor, single point] | 
49 | O=C(O)c1ccccc1C1c2ccccc2Oc2ccccc21 | inconclusive [inhibitor, partial curve] | 
50 | O=C(O)c1ccc(NC2=C/C(=N/S(=O)(=O)c3cccs3)c3ccccc3C2=O)cc1 | inconclusive [inhibitor, partial curve] | 
51 | Cc1cc(N2C(=O)C(O)=C(C(=O)c3cc4ccccc4o3)C2c2cccc(Br)c2)no1 (configuration not stated) |  | inactive: 13.8%
52 | COc1ccccc1CNc1ccc(Br)cn1 | inconclusive [inhibitor, full curve] | 
53 | CCc1ccc([C@@H]2CC=C(C(=O)O)[C@H](c3ccc(C)cc3)N2S(=O)(=O)c2ccc(C)cc2)cc1 | inconclusive [inhibitor, partial curve] | 
54 | C/C(C/C(C)=C1/SC(=S)NC1=O)=C1\SC(=S)NC1=O | inconclusive [inhibitor, full curve] | 
55 | Cc1ccc(C(=O)NC(=S)NNC(=O)CCN2CCOCC2)cc1 | inconclusive [inhibitor, single point] | 
56 | CC(C)CNC(=O)c1[nH]c(C(F)(F)F)nc1-c1ccccc1 | inconclusive [inhibitor, single point] | 
57 | CC[C@@H]1CC=C[C@H]2[C@H]1C(=O)N(Cc1ccccc1)[C@H]2c1ccc(OC)c(Cl)c1 | inconclusive [inhibitor, full curve] | 
58 | Cc1ccc(-c2csc3ncnc(Oc4cccc5ccc(C)nc45)c23)cc1 | inconclusive [inhibitor, full curve] | 
59 | COC1OC(c2ccccc2)=C(c2ccc(C(N)=O)cc2)c2ccc(F)cc21 (configuration not stated) | inconclusive [inhibitor, partial curve] | 
60 | COc1c(S(=O)(=O)N2CCCC2)ccc(Cl)c1Cl | inconclusive [inhibitor, single point] | 
61 | Cc1c(C(=O)NCc2ccc3c(c2)OCO3)cccc1[N+](=O)[O-] |  | inactive: 1.18%
62 | CCCc1cc(=O)oc2c3c(c4c(c12)OC(C)(C)C=C4)OC(C)C(C)C3O (configuration not stated) | inconclusive [inhibitor, partial curve] | 
63 | O=C1c2ccccc2C2N1CCCN2C(=O)c1sc2ccccc2c1Cl (configuration not stated) | inconclusive [inhibitor, partial curve] | 
64 | CCSc1nc2nn(-c3ccccc3)c(=O)c-2c2n1CCCCC2 |  | inactive: 5.34%
65 | CCN1C(=O)CCN(C2CCCC2)c2nc(Nc3ccc(C(=O)NC4CCN(C)CC4)cc3OC)ncc21 |  | inactive: 9.34%
66 | Cc1sc2nc(SCc3ccc(C(=O)O)cc3)n(Cc3ccco3)c(=O)c2c1C | inconclusive [inhibitor, partial curve, poor fit] | 
67 | C#CCOCCOCCOCCNc1nc(N2CCN(C(=O)[C@H](CO)n3cc([C@@H](N)C(C)C)nn3)CC2)nc(N2CCN(C(=O)[C@H](CO)n3cc([C@@H](N)C(C)C)nn3)CC2)n1 |  | inactive: 8.26%
